Measurements published in PubChem BioAssay AID2528 (National Center for Advancing Translational Sciences (NCATS), 2010).
Hit rate of the full screen: of about 350,000 compounds, about 700 (0.2%) were called active. The shares of active, inactive and inconclusive entries below differ from those in the screen. The call rests on the fitted dose curve; in most records, active means well fitted inhibition curve with a large enough effect; inconclusive means small, poorly fitted or top-dose-only effect; inactive means flat fitted curve, though single readings scatter. No potency is given beside an inconclusive call; the fits are too rough. The source holds several records for some structures; these can differ, active in one and inactive in another.

Each compound was assayed against RecQ-like DNA helicase BLM (Homo sapiens) (UniProt P54132) (assay: qHTS Assay for Inhibitors of Bloom's syndrome helicase (BLM)). Conditions: recombinant BLM DNA unwinding, fluorescence dequenching; series mostly up to 56.1 µM; activity change, negative = inhibition: at the top concentration.
Further: nearly all actives have a fitted effect of over 35% in size.
Potency means the concentration at half of the fitted maximal effect; tags describe the fitted curve by direction and shape.
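Wherever activity change, negative = inhibition is given: plate controls were vehicle for no effect and no enzyme for full effect.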

Sequence of UniProt P54132 (P54132 whole entry, looked up): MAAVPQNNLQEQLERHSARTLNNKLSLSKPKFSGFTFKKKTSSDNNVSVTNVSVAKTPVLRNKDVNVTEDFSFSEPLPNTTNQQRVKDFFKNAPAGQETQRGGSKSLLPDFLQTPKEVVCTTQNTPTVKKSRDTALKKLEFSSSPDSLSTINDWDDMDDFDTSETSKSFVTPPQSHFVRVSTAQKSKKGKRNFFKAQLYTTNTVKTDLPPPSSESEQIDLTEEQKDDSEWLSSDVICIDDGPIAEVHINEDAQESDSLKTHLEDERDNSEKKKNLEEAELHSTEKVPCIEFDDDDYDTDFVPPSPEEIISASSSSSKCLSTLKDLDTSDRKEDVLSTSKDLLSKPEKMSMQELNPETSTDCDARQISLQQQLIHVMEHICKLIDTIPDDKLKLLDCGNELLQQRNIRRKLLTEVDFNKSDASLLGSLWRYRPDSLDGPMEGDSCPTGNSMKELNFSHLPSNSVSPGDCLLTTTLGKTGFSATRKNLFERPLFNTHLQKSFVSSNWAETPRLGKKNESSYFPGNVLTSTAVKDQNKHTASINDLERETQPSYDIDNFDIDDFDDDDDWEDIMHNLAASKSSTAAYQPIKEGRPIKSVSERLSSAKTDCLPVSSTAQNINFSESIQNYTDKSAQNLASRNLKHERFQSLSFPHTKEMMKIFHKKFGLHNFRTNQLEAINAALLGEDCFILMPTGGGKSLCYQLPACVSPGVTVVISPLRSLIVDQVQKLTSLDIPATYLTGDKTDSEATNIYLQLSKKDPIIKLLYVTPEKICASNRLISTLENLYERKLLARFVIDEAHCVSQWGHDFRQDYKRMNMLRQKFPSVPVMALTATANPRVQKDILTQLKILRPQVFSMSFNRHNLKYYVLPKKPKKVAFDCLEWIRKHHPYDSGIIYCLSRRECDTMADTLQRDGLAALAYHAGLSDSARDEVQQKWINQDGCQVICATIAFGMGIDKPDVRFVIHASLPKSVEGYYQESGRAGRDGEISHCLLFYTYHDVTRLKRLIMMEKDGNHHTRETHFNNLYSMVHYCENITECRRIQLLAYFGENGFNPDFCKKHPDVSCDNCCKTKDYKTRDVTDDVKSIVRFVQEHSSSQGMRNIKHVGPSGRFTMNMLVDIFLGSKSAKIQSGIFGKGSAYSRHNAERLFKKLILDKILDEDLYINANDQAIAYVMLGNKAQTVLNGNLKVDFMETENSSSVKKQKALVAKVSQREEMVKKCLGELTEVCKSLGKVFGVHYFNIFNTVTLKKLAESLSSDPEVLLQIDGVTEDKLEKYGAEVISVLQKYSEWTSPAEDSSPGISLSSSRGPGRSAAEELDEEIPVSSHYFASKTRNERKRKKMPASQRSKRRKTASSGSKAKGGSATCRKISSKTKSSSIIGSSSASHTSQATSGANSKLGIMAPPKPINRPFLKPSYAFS

Row | SMILES | activity change, negative = inhibition | Potency
1 | N#Cc1c(-c2ccco2)cc(-c2ccc(F)cc2)nc1N | inactive: -17.1% | –
2 | Cc1nc2ccc3nc(NC(=O)c4ccc5c(c4)OCCO5)sc3c2s1 | inactive: -9.29% | –
3 | Cc1cc(NC(=S)N(Cc2ccc(Br)cc2)Cc2ccc(C(=O)O)cc2)ccc1Cl | – | inconclusive [inhibitor, single point]
4 | O=C(Nc1cccnc1Cl)c1cc(-c2ccc(Cl)cc2)on1 | – | inactive
5 | NC1=NC(=O)/C(=C/c2ccc(-c3ccc(S(N)(=O)=O)cc3)o2)S1 | – | inconclusive [inhibitor, single point]
6 | O=C(N/N=C/c1cc(Br)c(O)c(Br)c1)c1cc2c(ccc3ccccc32)o1 | – | inconclusive [inhibitor, single point]
7 | CN1C(=O)N(C)C2=NNC=NC2(O)C1=O (configuration not stated) | – | active: 28.2 µM
8 | COC(=O)c1ccccc1NC1=C/C(=N\S(=O)(=O)c2ccc(C(=O)O)cc2)c2ccccc2C1=O | – | active: 20 µM
9 | COc1ccc(CCNC(=O)C2CC2)cc1OC | inactive: -1.03% | –
10 | O=C(O)c1ccc(COc2ccc3ccccc3c2/C=C2/NC(=O)N(Cc3ccc(F)cc3)C2=O)cc1 | – | inconclusive [inhibitor, single point]
11 | COc1ccc(CCNC(=O)c2ccc3nc(-c4ccco4)c(-c4ccco4)nc3c2)cc1OC | – | active: 14.1 µM
12 | C/C(=N/Nc1ccccc1C(=O)O)c1cccs1 | inactive: 2.67% | –
13 | COc1cc(/C=C/[N+](=O)[O-])ccc1OCc1cccc(C(=O)O)c1 | – | inconclusive [inhibitor, single point]
14 | O=S(=O)(NCCc1csc2nc(-c3ccc(F)cc3)nn12)c1ccc(Oc2ccccc2)cc1 | inactive: -2.05% | –
15 | COc1ccc(CNc2nc(-c3ccc(N(C)C)cc3)nc3ccccc23)c(OC)c1 | – | active: 28.2 µM
16 | Cc1ccc(C)c(-n2c3nc(=O)[nH]c(=O)c-3cc3cc([N+](=O)[O-])ccc32)c1 | – | active: 20 µM
17 | CCCSc1nc2sc3c(c2c(=O)n1-c1ccc(C)c(Cl)c1)CCN(C(C)=O)C3 | – | inconclusive [inhibitor, partial curve]
18 | CCS(=O)(=O)c1cccc(C(=O)Nc2ccc(-c3nc4ccccc4s3)c(O)c2)c1 | – | inconclusive [inhibitor, partial curve]
19 | O=C(Nc1cccc(Cl)c1)c1cc(N=Nc2ccc([N+](=O)[O-])cc2Cl)ccc1O | – | active: 17.8 µM
20 | COc1cccc(-c2cc(=O)c3cc(NC(=O)c4ccc(C)cc4)ccc3[nH]2)c1 | inactive: 1.5% [at 75.6 µM] | –
21 | COc1ccc(Cl)cc1C(=O)Nc1nnc2n1CCS2 | inactive: -0.759% | –
22 | Cc1nc2[nH]c(=O)[nH]c(=O)c2[nH]1 | inactive: 1.48% | –
23 | FC(F)(F)c1cccc(NC(=S)NNC(=S)NCc2ccccc2)c1 | – | inconclusive [inhibitor, partial curve]
24 | NNC(=O)c1cc(O)c(O)c(O)c1 | – | inconclusive [inhibitor, full curve]

Row | SMILES | activity change, negative = inhibition | Potency
25 | O=C(Nc1cccc(S(=O)(=O)NC2=NCCC2)c1)c1cc(-c2ccco2)nc2ccccc12 | – | active: 10 µM
26 | N#C/C(=C\c1ccc(-c2cc(Cl)ccc2Cl)o1)C(=O)Nc1ccccc1C(=O)O | – | active: 11.2 µM
27 | O=C(CCO)c1ccc(O)cc1 | – | active: 25.1 µM
28 | Nc1nc(-c2ccco2)c(-c2ccco2)s1 | – | inconclusive [inhibitor, single point]
29 | Cc1cc(C)nc(CCNC(=O)CC2C(=O)NCCN2Cc2ccc(F)cc2Cl)n1 (configuration not stated) | inactive: -4.7% | –
30 | Cc1ccc(/C([O-])=C(/C(=S)NCc2ccco2)[n+]2ccccc2)cc1[N+](=O)[O-] | – | inconclusive [inhibitor, partial curve]
31 | CCOc1ccccc1N1CCN(C(=S)NCc2ccco2)CC1 | – | inconclusive [inhibitor, single point]
32 | CCCOP(=O)(c1ccc(N(C)C)cc1)C(Nc1ccccc1)c1ccc(N(C)C)cc1 (configuration not stated) | inactive: -8.39% | –
33 | CCN(CC)c1ccc(/C=N/N2CCOCC2)c(O)c1 | inactive: -3.95% | –
34 | Cc1ccc(S(=O)(=O)c2cn(C)c3cc(N4CCCC(C)C4)c(F)cc3c2=O)c(C)c1 (configuration not stated) | – | inconclusive [inhibitor, partial curve]
35 | Nc1nc(Nc2ccccc2)nc(NC2CCCCC2)c1[N+](=O)[O-] | – | inconclusive [inhibitor, single point]
36 | CCOc1cccc(=O)c2c(C)n(Cc3ccco3)c(C)c12 | – | inconclusive [inhibitor, single point]
37 | Nc1c(S(=O)(=O)O)cc(Nc2cccc3ccccc23)c2c1C(=O)c1ccccc1C2=O | – | inconclusive [inhibitor, single point]
38 | O=C(C=C1SCCS1)/C=C/c1ccco1 | – | inconclusive [inhibitor, single point]
39 | COc1cccc(/C=N/NC(=O)Cn2ccnc2C)c1 | inactive: 3.83% | –
40 | O=C(CNC(=O)/C=C/c1ccco1)N=Nc1c(O)[nH]c2ccccc12 | – | active: 20 µM
41 | COC(=O)c1cccc(-c2ccc(C(c3c(C)[nH][nH]c3=O)c3c(C)[nH][nH]c3=O)o2)c1 | – | inconclusive [inhibitor, single point]
42 | O=S(=O)(Nc1cc(O)cc2cccnc12)c1ccc(Cl)s1 | – | inconclusive [inhibitor, single point]
43 | O=C(O)c1cccc(NC(=O)c2ccc3c(c2)C(=O)N(Cc2ccco2)C3=O)c1 | inactive: -3.4% | –
44 | CC(/C=C/C1(O)C(C)CC(O)CC1(C)C)OC1OC(CO)C(O)C(O)C1O (configuration not stated) | – | inconclusive [inhibitor, single point]
45 | CCN1/C(=C/C=C/c2sc3ccccc3[n+]2CC)Sc2ccccc21 | – | active: 31.6 µM
46 | Cc1cccn2c(=O)c3cc(S(=O)(=O)c4ccccc4)c(=N)n(Cc4ccco4)c3nc12 | – | active: 28.2 µM
47 | CC(=O)N1CCc2cc(S(=O)(=O)NC(Cc3ccccc3)C(=O)Nc3ccc(Cl)cc3)ccc21 (configuration not stated) | inactive: -3.87% | –
48 | N=C1/C(=C/c2ccc(-c3cccc(C(=O)O)c3)o2)C(=O)N=C2SC=C(c3ccccc3)N12 | – | inconclusive [inhibitor, single point]

Row | SMILES | activity change, negative = inhibition | Potency
49 | CCc1ccc(-n2cccc2/C=C2/C(=N)N3C(=NC2=O)SN=C3S(C)(=O)=O)cc1 | – | inconclusive [inhibitor, partial curve]
50 | O=C(O)CSc1cc(NS(=O)(=O)c2ccc(Cl)cc2)c2ccccc2c1O | – | active: 25.1 µM
51 | Cc1cc(C)c2c(n1)sc1c(O)cc(=O)[nH]c12 | – | inconclusive [inhibitor, partial curve]
52 | O=C(/C=C/c1ccco1)OCc1nnc(-c2ccc(Cl)cc2)o1 | – | inconclusive [inhibitor, single point]
53 | CCn1nc([N+](=O)[O-])c2c(-c3nc4ccccc4o3)c(N)n(CCCOC)c2c1=O | – | active: 10 µM
54 | O=C1OC(c2cccs2)=N/C1=C\c1ccc(-c2cccc(Cl)c2)o1 | – | inconclusive [inhibitor, single point]
55 | COC(=O)[C@@H](NC(=O)O[C@@H]1C(=O)c2cc(OC)ccc2O[C@H]1c1cccc(OC)c1)C(C)C | inactive: 4.49% | –
56 | O=C(O)c1ccc(N=Nc2c(O)ccc3ncccc23)cc1 | – | inconclusive [inhibitor, single point]
57 | CC(=O)Nc1ccc(N2C(=O)c3cccc4c(O)ccc(c34)C2=O)cc1 | – | inconclusive [inhibitor, single point]
58 | CC1(C)C(/C=C/C=C/C=C/C=C2\N(CCCCS(=O)(=O)O)c3ccc4ccccc4c3C2(C)C)=[N+](CCCCS(=O)(=O)[O-])c2ccc3ccccc3c21 | – | inconclusive [inhibitor, single point]
59 | O=C1CC(=O)N(Cc2ccco2)C(=S)N1 | – | inconclusive [inhibitor, single point]
60 | CNC(=S)NNC(=O)c1oc2nc(-c3ccccc3)cc(-c3ccco3)c2c1N | – | inconclusive [inhibitor, partial curve]
61 | COCCNC(=O)C1(C(F)(F)F)C/C(=C\CCO)CCCO1 (configuration not stated) | inactive: 2.23% | –
62 | Cc1cccc(C#Cc2ccccc2)n1 | – | inconclusive [inhibitor, full curve, poor fit]
63 | Cc1cc2ccccc2nc1SCC(=O)NC1CCCC1 | inactive: -5.49% | –
64 | COc1c(-c2ccc(O)c(O)c2)oc2cc(O)cc(O)c2c1=O | – | active: 11.2 µM
65 | COc1ccccc1NC(=O)C1=C(C)NC(=O)NC1c1ccccc1[N+](=O)[O-] (configuration not stated) | – | inconclusive [inhibitor, single point]
66 | CC12C=C(/C=C/CCc3ccco3)C(C)(C1)C(CCc1ccco1)CC2=O (configuration not stated) | – | inconclusive [inhibitor, partial curve]
67 | CCC(=NCCc1c(C)[nH]c2ccc(OC(F)(F)F)cc12)C1=C(O)CC(c2ccccc2)CC1=O (configuration not stated) | inactive: -16.7% | –
68 | Oc1c(Br)cc(Br)cc1C=NCc1ccc(F)cc1 | – | inconclusive [inhibitor, partial curve]
69 | COc1cc(C2c3c([nH]c(=O)[nH]c3=O)Nc3ccc4ccccc4c32)cc(OC)c1OC (configuration not stated) | – | active: 25.1 µM
70 | NC(C(=O)O)C(O)c1ccc(O)c(O)c1 (configuration not stated) | – | inconclusive [inhibitor, full curve, poor fit]
71 | CCN1/C(=C/C=C/c2oc3ccc(-c4ccccc4)cc3[n+]2CC)Oc2ccc(-c3ccccc3)cc21 | – | active: 22.4 µM
72 | O=C(NC(=S)Nc1ccc(-c2ccc(CO)o2)cc1)c1cccs1 | – | inconclusive [inhibitor, single point]
